Measurements reported in patent publication US11613544B2, “Substituted imidazo[1,5-a]pyrazines for modulation of IRE1” (THE REGENTS OF THE UNIVERSITY OF CALIFORNIA, priority 2012, dated 2023).
Like-named read-outs stand apart in the source and are kept apart here. Each block holds one compound with its values, some of them ahead of it.

Assays:
dP-IRE1α* = molecular target: T1, dP-IRE1α* (Homo sapiens, UniProt O75460); assay: XBP1 RNA minisubstrate RNase assay with dephosphorylated IRE1α*; format: biochemical; settings: increasing compound
T1 construct: 6-His-tag (N); made in house; host or cells: SF9 insect cells (Bac-to-Bac baculovirus), then λ-PPase (NEB) treatment
Description: 5'FAM-3'BHQ-labeled XBP1 single stem-loop minisubstrate (5'[NT]3'BHQ) was purchased from Dharmacon. 0.2 μM IRE1α* or dP-IRE1α* were incubated with inhibitors or DMSO for 20 min in cleavage buffer, followed by incubation with 3 μM RNA substrate for 5 min. […] The cleavage products were also resolved by urea PAGE after phenol/chloroform extraction and ethanol precipitation.

IRE1α* [1] = molecular target: T2, IRE1α* (Homo sapiens, UniProt O75460); assay: IRE1α* DSS cross-linking to determine oligomer to monomer ratio; settings: saturating compound (200 μM), DSS 250 μM
IRE1α* [2] = molecular target: T2, IRE1α*; settings: for modulation of IRE1α* RNase activity (XBP1 RNA cleavage): in vitro
IRE1α* [3] = molecular target: T2, IRE1α*; assay: ICAT footprinting of native cysteine residues; format: binding; parameters: 6-His-tag (N); made in house; host or cells: SF9 insect cells (Bac-to-Bac baculovirus); settings: 20 μM inhibitor
Description: As Cys645 and Cys715 are located within the ATP-binding cleft of IRE1α, the accessibility of these residues would be expected to be affected by ligands that occupy this site, while Cys572 is a solvent-exposed residue located on the top of the N-terminal lobe of the kinase.
Purified human Ire1α was exchanged into 50 mM Tris (pH 8.0), 50 mM KCl, 5 mM MgCl2, and 0.5 mM TCEP. […] Heavy labeling reagent was added to the protein solutions, and 25 μL aliquots were taken at specified times and quenched with excess DTT. Samples were precipitated with 0.2% sodium deoxycholate and 10% trichloroacetic acid on ice for 10 min. […] The pellets were then resuspended in 30 μL of 200 mM Tris (pH 8.0), 7 M urea, and 2.4 mM light labeling reagent, and incubated in the dark for 30 min. […] Samples (0.3 μmol) were injected onto a Thermo Scientific Dionex Acclaim Pepmap100 NanoLC capillary column (C18, 150 mm length, I.D. 75 μm, 3 μm particle size) connected inline to a Finnigan LCQ mass spectrometer. Peptides of interest were identified by MS/MS data (Sequest), and corresponding XIC peaks were integrated. Alkylation curves were fit using GraphPad Prism software (Binding—Kinetics, Dissociation—One-phase exponential decay).

IRE1α* [4] = molecular target: T2, IRE1α*; assay: IRE1α* autophosphorylation kinase assay ([γ-32P]ATP, autoradiography); settings: read-out: IC50 (autophosphorylation); IRE1α* kinase autophosphorylation in vitro
WT IRE1α = assay: Autophosphorylation and XBP1 mRNA splicing in Dox-induced T-REx 293 cells expressing WT IRE1α; format: cell-based, human; settings: 1 hr pre-treatment, Dox 1 μM 8 hrs
Description: Having used a truncated form of IRE1α for in vitro studies, cell-based experiments were used to test whether it would be possible to replicate divergent modulation of the full-length IRE1α transmembrane protein with the two classes of kinase inhibitors.
Cell culture and XBP1 mRNA splicing. INS-1 cells were grown in RPMI, 10% fetal calf serum, 1 mM sodium pyruvate, 10 mM HEPES, Pen/strep, 2 mM glutamine and 50 mM 0-mercaptoethanol. […] The RNA was then extracted using RNeasy Mini Kit (Qiagen), and reverse transcribed using the QuantiTect Reverse Transcription Kit (Qiagen). XBP1 splicing was performed as previously described^7.
Immunoblot analysis. INS-1 cells were incubated with compounds or DMSO for 1 hr, followed by 1 μM Tg for 2 hrs. […] Cells were lysed in RIPA buffer (20 mM Tris-HCl, pH 7.5, 0.1% SDS, 1% Triton X-100, 1% sodium deoxycholate, 150 mM NaCl, 1 mM EDTA, 1% NP-40, complete EDTA-free protease inhibitor (Roche) and phosphatase inhibitor cocktail (Sigma)), and cleared lysates were subjected to SDS-PAGE and transferred to nitrocellulose. Blocking, antibody incubation, and washing were done in PBS or TBS with 0.05% Tween-20 (v/v) and 5% (w/v) non-fat dry milk or BSA, or blocking buffer (Odyssey). […] The antibody binding was detected by using near-infrared-dye-conjugated secondary antibodies and visualized on the LI-COR Odyssey scanner.

Src = Src (Homo sapiens, UniProt P12931); assay: Kinase panel counter-screen; format: biochemical; settings: tested against 12 kinases of the panel
Abl = Abl (Homo sapiens, UniProt P00519); assay: Kinase panel counter-screen; format: biochemical; settings: tested against 12 kinases of the panel
[5] = INS-1, thapsigargin-induced ER stress

T2 sequence (O75460 with tags, fused parts or gaps): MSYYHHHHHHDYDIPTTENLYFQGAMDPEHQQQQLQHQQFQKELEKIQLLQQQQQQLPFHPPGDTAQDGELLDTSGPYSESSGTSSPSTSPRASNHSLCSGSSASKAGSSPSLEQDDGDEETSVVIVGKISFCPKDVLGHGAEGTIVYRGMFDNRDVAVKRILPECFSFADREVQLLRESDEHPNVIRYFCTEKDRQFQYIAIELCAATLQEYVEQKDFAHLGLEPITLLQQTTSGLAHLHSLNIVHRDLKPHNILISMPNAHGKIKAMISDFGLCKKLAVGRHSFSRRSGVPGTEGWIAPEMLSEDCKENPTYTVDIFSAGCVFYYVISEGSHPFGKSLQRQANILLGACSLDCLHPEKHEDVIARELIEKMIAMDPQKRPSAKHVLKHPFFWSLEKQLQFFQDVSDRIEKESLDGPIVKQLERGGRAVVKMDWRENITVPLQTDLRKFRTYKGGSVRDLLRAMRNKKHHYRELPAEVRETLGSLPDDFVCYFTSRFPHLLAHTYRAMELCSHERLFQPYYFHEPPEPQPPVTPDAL
Sequence of Abl (P00519 whole entry, species assumed): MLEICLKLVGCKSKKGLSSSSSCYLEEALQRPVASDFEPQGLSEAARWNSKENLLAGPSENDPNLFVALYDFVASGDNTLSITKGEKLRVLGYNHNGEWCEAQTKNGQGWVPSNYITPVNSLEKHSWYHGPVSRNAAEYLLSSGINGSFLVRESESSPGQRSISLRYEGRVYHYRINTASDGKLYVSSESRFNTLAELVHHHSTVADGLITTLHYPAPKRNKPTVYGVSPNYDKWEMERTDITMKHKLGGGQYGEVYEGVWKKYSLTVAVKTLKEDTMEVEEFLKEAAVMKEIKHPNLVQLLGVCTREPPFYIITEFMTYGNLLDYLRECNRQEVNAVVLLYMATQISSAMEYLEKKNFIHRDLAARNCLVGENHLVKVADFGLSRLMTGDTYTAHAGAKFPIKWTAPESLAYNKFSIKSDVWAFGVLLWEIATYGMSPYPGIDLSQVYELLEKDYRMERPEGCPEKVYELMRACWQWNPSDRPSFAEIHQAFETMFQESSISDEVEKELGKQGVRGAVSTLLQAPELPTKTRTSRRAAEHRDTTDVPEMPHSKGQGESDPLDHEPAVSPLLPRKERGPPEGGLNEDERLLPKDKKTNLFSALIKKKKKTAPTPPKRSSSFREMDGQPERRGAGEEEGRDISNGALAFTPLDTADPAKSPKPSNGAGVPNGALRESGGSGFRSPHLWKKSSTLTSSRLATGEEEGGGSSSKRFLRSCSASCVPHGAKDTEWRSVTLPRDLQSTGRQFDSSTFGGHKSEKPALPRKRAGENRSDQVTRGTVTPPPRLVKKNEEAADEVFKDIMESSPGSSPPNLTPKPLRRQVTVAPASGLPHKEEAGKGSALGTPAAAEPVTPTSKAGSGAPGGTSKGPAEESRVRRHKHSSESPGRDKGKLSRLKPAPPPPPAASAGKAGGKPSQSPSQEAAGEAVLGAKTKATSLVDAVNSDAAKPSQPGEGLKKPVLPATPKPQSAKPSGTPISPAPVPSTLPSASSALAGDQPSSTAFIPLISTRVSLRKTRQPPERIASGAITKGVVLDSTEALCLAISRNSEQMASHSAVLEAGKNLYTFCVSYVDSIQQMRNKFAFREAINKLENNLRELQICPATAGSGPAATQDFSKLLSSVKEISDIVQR
Sequence of Src (P12931 whole entry, species assumed): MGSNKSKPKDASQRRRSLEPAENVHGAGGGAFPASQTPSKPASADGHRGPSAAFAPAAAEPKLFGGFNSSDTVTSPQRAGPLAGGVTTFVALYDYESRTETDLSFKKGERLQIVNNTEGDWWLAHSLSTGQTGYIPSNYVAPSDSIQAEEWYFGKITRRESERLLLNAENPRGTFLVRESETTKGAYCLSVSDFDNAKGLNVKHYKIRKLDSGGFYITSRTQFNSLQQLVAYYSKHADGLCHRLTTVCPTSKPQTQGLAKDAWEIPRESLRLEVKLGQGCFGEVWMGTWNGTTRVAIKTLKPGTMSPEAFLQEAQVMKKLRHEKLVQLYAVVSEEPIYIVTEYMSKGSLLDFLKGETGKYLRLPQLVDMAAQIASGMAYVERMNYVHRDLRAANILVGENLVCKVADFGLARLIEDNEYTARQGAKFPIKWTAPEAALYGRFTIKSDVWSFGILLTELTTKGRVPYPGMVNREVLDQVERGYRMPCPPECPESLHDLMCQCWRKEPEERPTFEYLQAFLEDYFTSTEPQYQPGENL
T1 sequence (O75460 with tags, fused parts or gaps): as the sequence (O75460 with tags, fused parts or gaps) above

modulation of IRE1α* RNase activity (XBP1 RNA cleavage) (IRE1α* [2]): significant increase in overall potency
SMILES: CC(C)c1nc(-c2ccc(NC(=O)Nc3cccc(C(F)(F)F)c3)cc2)c2c(N)nccn12 [KIRA2, 1-(4-(8-amino-3-isopropylimidazo[1,5-a]pyrazin-1-yl)phenyl)-3-(3-(trifluoromethyl)phenyl)urea]

XBP1 mRNA splicing (RNase of endogenous IRE1α) (endogenous IRE1α; [5]): does not block the splicing of XBP1 mRNA
SMILES: CNc1nccn2c(C(C)C)nc(-c3ccc(NC(=O)Nc4cccc(C(F)(F)F)c4)c4ccccc34)c12 [GP146(NMe), 1-(4-(3-isopropyl-8-(methylamino)imidazo[1,5-a]pyrazin-1-yl)naphthalen-1-yl)-3-(3-(trifluoromethyl)phenyl)urea]
modulation of IRE1α* RNase activity (XBP1 RNA cleavage) (IRE1α* [2]): markedly diminished ability to inhibit the RNase activity
autophosphorylation and XBP1 mRNA splicing (WT IRE1α): does not affect either of these parameters

off-target kinase inhibition (Src): off-target inhibition observed
off-target kinase inhibition (Abl): off-target inhibition observed
XBP1 mRNA splicing (RNase of endogenous IRE1α) (endogenous IRE1α; [5]): opposing dose-dependent effects
SMILES: CC(C)c1nc(-c2ccc(NC(=O)Nc3cccc(C(F)(F)F)c3)c3ccccc23)c2c(N)nccn12 [KIRA3, 1-(4-(8-amino-3-isopropylimidazo[1,5-a]pyrazin-1-yl)naphthalen-1-yl)-3-(3-(trifluoromethyl)phenyl)urea]
autophosphorylation and XBP1 mRNA splicing (WT IRE1α): inhibits autophosphorylation and XBP1 mRNA splicing

Continued, compound first:

SMILES: c1cc(Nc2cc(C3CC3)[nH]n2)nc(Nc2ccc3nc[nH]c3c2)n1 [APY29, reference compound]
restored RNase activity of dP-IRE1α*, plateau (dP-IRE1α*): ~60 % of the levels of IRE1α*
IRE1α* oligomer/monomer ratio (oligomerization state) (IRE1α* [1]): further enhances
modulation of IRE1α* RNase activity (XBP1 RNA cleavage) (IRE1α* [2]): acting as an activator
RNase competition: effect on IRE1α* RNase inhibition (IRE1α* [2]; increasing concentrations under a fixed concentration of KIRA3 (GP146)): progressively reverse IRE1α* RNase inhibition
RNase competition: effect on IRE1α* RNase inhibition (IRE1α* [2]; under fixed STF-083010): cannot rescue direct inhibition
accessibility (alkylation rate) of Cys715 (IRE1α* [3]): slowing the rate of alkylation
accessibility of Cys572 (IRE1α* [3]): no detectable difference
accessibility of Cys645 to alkylating agents (IRE1α* [3]): highly shielded from alkylating agents
IC50 (IRE1α* [4]): 280 nM
XBP1 mRNA splicing (RNase of endogenous IRE1α) (endogenous IRE1α; [5]): opposing dose-dependent effects

SMILES: CC(C)c1nc(-c2ccc(NC(=O)c3cccc(C(F)(F)F)c3)c3ccccc23)c2c(N)nccn12 [GP146(Am), N-(4-(8-amino-3-isopropylimidazo[1,5-a]pyrazin-1-yl)naphthalen-1-yl)-3-(trifluoromethyl)benzamide]
modulation of IRE1α* RNase activity (XBP1 RNA cleavage) (IRE1α* [2]): markedly diminished ability to inhibit the RNase activity

SMILES: O=S(=O)(N=Cc1c(O)ccc2ccccc12)c1cccs1 [STF-083010, reference compound]
IRE1α autophosphorylation (kinase activity) (endogenous IRE1α; [5]): does not prevent IRE1α auto-phosphorylation
XBP1 mRNA splicing (RNase of endogenous IRE1α) (endogenous IRE1α; [5]): inhibits XBP1 splicing in a dose-dependent manner
endogenous IRE1α auto-phosphorylation (endogenous IRE1α; in vivo (cells), FIG. 30D): does not inhibit IRE1α auto-phosphorylation
